In all, about 33,000 sequences were measured (“E-score (-0.5 to 0.5)”: median about -0.012, highest 2% from about 0.27 on). The list shows a part of the results.

The assay addresses T1, Vhr1 (UniProt P40522).
T1 sequence: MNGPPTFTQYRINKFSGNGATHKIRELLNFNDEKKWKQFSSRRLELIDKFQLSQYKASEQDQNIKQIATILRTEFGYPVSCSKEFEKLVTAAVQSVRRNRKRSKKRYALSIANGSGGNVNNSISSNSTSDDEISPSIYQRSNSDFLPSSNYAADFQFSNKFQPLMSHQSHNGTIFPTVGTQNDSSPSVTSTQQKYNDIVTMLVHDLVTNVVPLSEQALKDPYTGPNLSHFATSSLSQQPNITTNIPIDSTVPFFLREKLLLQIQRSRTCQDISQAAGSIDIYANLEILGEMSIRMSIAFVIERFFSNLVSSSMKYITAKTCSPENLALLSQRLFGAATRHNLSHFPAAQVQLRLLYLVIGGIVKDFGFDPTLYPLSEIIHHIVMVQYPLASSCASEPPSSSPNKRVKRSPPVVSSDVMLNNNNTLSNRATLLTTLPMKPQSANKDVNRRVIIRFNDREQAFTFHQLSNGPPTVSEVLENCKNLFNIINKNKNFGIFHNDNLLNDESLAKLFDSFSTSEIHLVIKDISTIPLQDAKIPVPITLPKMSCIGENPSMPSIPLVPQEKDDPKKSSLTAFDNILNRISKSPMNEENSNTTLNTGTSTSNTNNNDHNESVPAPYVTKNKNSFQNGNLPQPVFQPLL
The assay is described as follows: PBM E-score (8-mer binding enrichment) (E-score (-0.5 to 0.5)); higher = stronger / more preferred TF binding; most listed sequences are background and not binding sites. The note with it: protein concentration: 200 nM; construct: GST-full length. In a few lines:
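Universal all-10-mer Agilent arrays, fresh or stripped once, were converted to double-stranded form by primer extension. GST-tagged yeast transcription factors from PURExpress in vitro transcription/translation, full-length or DNA-binding domain only, were applied at about 100-200 nM and detected with fluorescent anti-GST. After masliner normalisation, the Universal PBM Analysis Suite scored each ungapped eight-base word together with its reverse complement by E-score.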
Turning to CCGGTGGA, the “PBM E-score” value is 0.0427.

On to ATTCTAGA, for which the “PBM E-score” value was -0.0371.

Consider ACGTCGTA, for which the “PBM E-score” value was -0.251.

In the case of GCAAGACA, the “PBM E-score” value was -0.242.

With GTTAATAA, the “PBM E-score” value was 0.0193.

Take CTGTCGAC: the “PBM E-score” value is 0.00438.

As for CCACGGCG, the “PBM E-score” value was 0.0427.

For TGGCCCAA, the “PBM E-score” value is -0.248.

For the sequence GTGAGTGA, the “PBM E-score” value worked out at 0.245.

With ACCCTAAC, the “PBM E-score” value is -0.0674.

As to ATCGTTTG, the “PBM E-score” value is 0.0348.

AATGATAG: the “PBM E-score” value was 0.162.

As for GCCAAAGC, the “PBM E-score” value is -0.168.

In the case of GACTACAC, the “PBM E-score” value was found to be 0.315.

On to ATCGCAGA, for which the “PBM E-score” value is 0.00975.

Take ACTAAGCG: the “PBM E-score” value was determined as 0.0112.

Take CACGGCAA: the “PBM E-score” value is -0.0477.

As to CACAGGGC, the “PBM E-score” value is -0.0909.

Consider AACATCAG, for which the “PBM E-score” value amounted to 0.00809.

Consider TACGGAAA, for which the “PBM E-score” value was -0.141.

In the case of CGTGCCCA, the “PBM E-score” value was -0.067.

On to AAATGGTC, for which the “PBM E-score” value was -0.104.

Regarding TACCGACA, the “PBM E-score” value came out at 0.158.

With ATCTCAGC, the “PBM E-score” value is -0.0544.

Regarding AAAGCCAT, the “PBM E-score” value was -0.0236.

Regarding CGCATTCC, the “PBM E-score” value is -0.137.

In the case of GGTCAGGA, the “PBM E-score” value was found to be 0.0179.

For the sequence GGATAGCA, the “PBM E-score” value came to 0.0477.

As to CTTCCTAC, the “PBM E-score” value was -0.352.

Turning to CTGTTAGA, the “PBM E-score” value was -0.168.

Consider GGGTCTAC, for which the “PBM E-score” value is -0.00895.

As for CACGGATC, the “PBM E-score” value turned out to be 0.189.

With ACCTAAAT, the “PBM E-score” value was found to be 0.0108.

On to CTAACTTA, for which the “PBM E-score” value was -0.153.

GAACCAGC: the “PBM E-score” value worked out at 0.0571.

Regarding ATAGTGTG, the “PBM E-score” value was found to be 0.264.

As for GCACCTGC, the “PBM E-score” value is -0.00774.

On to CACTATTC, for which the “PBM E-score” value was -0.00366.

As for CATGCACG, the “PBM E-score” value was -0.132.

Take AAGGATGA: the “PBM E-score” value was 0.157.

AAGTTCGG: the “PBM E-score” value is -0.155.

On to AAGAGATG, for which the “PBM E-score” value is -0.0141.

For CTGGACCA, the “PBM E-score” value was -0.069.

In the case of TGTCAGAA, the “PBM E-score” value is -0.0701.

Regarding GCTACAAA, the “PBM E-score” value was -0.0951.

On to ACGTTGAA, for which the “PBM E-score” value was -0.0769.

ATGCAACC: the “PBM E-score” value amounted to 0.0513.

For the sequence AGACGTTA, the “PBM E-score” value is -0.167.

In the case of GACCTTGA, the “PBM E-score” value is -0.132.

For the sequence AGGTAGGG, the “PBM E-score” value is 0.0497.

For AAACATCA, the “PBM E-score” value stood at 0.0589.

For the sequence AGAATTCC, the “PBM E-score” value is -0.103.

As to GGTGCCAA, the “PBM E-score” value is -0.00979.

As to ACACTTGG, the “PBM E-score” value was determined as 0.0977.

Turning to ATCGGCTC, the “PBM E-score” value was found to be 0.0969.

Turning to ACTTCGAG, the “PBM E-score” value was -0.112.

For the sequence CGCCGCTC, the “PBM E-score” value amounted to 0.00899.

ATGATATC: the “PBM E-score” value amounted to 0.0491.

On to ATGAGCCA, for which the “PBM E-score” value worked out at 0.271.

For the sequence CCCCACGC, the “PBM E-score” value was -0.213.

For CAGGGATC, the “PBM E-score” value is -0.0171.

Take GACAAATA: the “PBM E-score” value worked out at 0.00451.

As for AGGACTCG, the “PBM E-score” value is 0.167.

As to TGATTGCA, the “PBM E-score” value turned out to be 0.194.

In the case of ACCCGCAC, the “PBM E-score” value worked out at 0.165.

Take CAGACGGG: the “PBM E-score” value is -0.00878.

As for AGGATTGC, the “PBM E-score” value was -0.0582.

On to AAATCCCG, for which the “PBM E-score” value is -0.0961.

Take CGAGAATC: the “PBM E-score” value is -0.11.

Take ATCGACCA: the “PBM E-score” value was -0.13.

Turning to ACACAATC, the “PBM E-score” value turned out to be 0.0721.

With CCCGCCTA, the “PBM E-score” value came to 0.164.

With GGATTAAC, the “PBM E-score” value is 0.0936.

AATAAGAC: the “PBM E-score” value is -0.158.

On to CGTCTAGC, for which the “PBM E-score” value is -0.214.

Turning to AAGCCCGA, the “PBM E-score” value was -0.0873.

Consider TCCGAGCA, for which the “PBM E-score” value was determined as 0.0459.

Turning to ACCTAGCA, the “PBM E-score” value was -0.0226.

As to CCAAAGGC, the “PBM E-score” value is -0.19.

Turning to AAGATATG, the “PBM E-score” value was determined as 0.209.

For the sequence GAAGGCAA, the “PBM E-score” value was -0.141.

Regarding CGTAGTAA, the “PBM E-score” value is -0.095.

Take AATCCAGG: the “PBM E-score” value came out at 0.0824.

In the case of AATGCGAT, the “PBM E-score” value was found to be 0.05.

Consider ACAGACGA, for which the “PBM E-score” value was 0.0948.

Take GAGTGGAA: the “PBM E-score” value was -0.127.

With AGGGCCAA, the “PBM E-score” value was -0.299.

Turning to ACGTCAGC, the “PBM E-score” value stood at 0.0686.

Regarding AGCCAATC, the “PBM E-score” value came out at 0.0205.

On to GCTATGAC, for which the “PBM E-score” value was 0.201.

As to CCGTCACG, the “PBM E-score” value was -0.0793.

On to CTGGTCGA, for which the “PBM E-score” value was -0.119.

For the sequence GATAGTTA, the “PBM E-score” value turned out to be 0.109.

Regarding AATTCGAA, the “PBM E-score” value is -0.184.

(Values after the supplement of paper PMC3334620.)
